This passage reports Kd results from patent publication US12583836B2 (Anaxis Pharma Pty Ltd, priority 2020, dated 2026).

Structures are written as SMILES. Some results are limits rather than exact numbers.

In one assay the target is T1, RIP3 (Homo sapiens, UniProt Q9Y572).
T1 construct: purchased DiscoverX (KINOMEscan service); host or cells: E. coli BL21-derived (T7 phage) or HEK293
Briefly: KINOMEscan binding assay, RIP3. The conditions noted are these: equilibrium dissociation constant, class symbols. From the text: The Hill Slope was set to −1.

The target of a further assay is T2, RIP1 (Homo sapiens, UniProt Q13546).
T2 construct: purchased DiscoverX (KINOMEscan service); host or cells: E. coli BL21-derived (T7 phage) or HEK293
T2 sequence (Q13546 1-671): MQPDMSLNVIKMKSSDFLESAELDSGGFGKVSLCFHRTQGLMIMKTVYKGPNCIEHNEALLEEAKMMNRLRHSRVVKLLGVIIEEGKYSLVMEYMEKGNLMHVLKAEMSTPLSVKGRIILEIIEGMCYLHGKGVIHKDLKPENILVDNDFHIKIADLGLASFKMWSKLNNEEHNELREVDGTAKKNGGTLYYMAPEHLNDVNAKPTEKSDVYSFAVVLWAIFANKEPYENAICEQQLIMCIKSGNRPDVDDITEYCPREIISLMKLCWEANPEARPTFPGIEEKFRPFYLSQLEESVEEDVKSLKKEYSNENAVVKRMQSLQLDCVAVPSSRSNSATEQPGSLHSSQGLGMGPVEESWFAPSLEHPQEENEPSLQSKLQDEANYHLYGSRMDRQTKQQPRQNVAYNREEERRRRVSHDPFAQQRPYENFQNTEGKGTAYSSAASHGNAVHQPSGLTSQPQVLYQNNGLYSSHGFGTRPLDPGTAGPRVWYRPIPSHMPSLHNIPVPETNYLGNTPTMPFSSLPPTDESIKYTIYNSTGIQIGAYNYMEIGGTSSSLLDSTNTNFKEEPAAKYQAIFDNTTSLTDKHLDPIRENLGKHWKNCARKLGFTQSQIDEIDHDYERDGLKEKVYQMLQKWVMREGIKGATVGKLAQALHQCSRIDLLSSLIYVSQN
Briefly: KINOMEscan binding assay, RIP1. The conditions noted are these: equilibrium dissociation constant, class symbols.

T1 sequence (Q9Y572 whole entry): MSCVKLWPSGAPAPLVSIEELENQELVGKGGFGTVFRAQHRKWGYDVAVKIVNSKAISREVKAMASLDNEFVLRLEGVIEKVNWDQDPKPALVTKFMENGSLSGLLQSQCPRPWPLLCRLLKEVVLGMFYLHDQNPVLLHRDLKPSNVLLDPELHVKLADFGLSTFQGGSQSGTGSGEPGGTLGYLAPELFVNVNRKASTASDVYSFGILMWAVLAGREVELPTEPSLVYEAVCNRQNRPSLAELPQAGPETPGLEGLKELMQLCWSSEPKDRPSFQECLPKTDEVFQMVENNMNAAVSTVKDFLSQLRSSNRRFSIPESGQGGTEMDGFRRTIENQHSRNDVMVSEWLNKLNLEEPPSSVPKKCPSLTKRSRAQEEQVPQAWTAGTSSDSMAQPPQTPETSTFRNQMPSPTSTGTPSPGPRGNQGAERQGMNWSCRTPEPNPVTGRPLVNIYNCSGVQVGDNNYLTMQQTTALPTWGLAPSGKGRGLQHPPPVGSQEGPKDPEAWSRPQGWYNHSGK

With `CCC(Oc1cc(-c2n[nH]c(Nc3cnccn3)c2C(N)=O)ccc1NS(=O)(=O)CC(F)(F)F)c1ccc(F)cc1` (racemic) [Compound 263, 3-(3-(1-(4-fluorophenyl)propoxy)-4-(2,2,2-trifluoroethylsulfonamido)phenyl)-5-(pyrazin-2-ylamino)-1H-pyrazole-4-carboxamide], the Kd (usually the free concentration of one partner at which half of the binding sites on the other are occupied at equilibrium, for simple one-to-one binding) at RIP3 is more than 30 µM. For `C[C@H](Oc1cc(-c2n[nH]c(Nc3cc(C4CCOCC4)on3)c2C(N)=O)ccc1NS(=O)(=O)C(F)F)c1ccc(F)cc1` [Compound 303, (S)-3-(4-((difluoromethyl)sulfonamido)-3-(1-(4-fluorophenyl)ethoxy)phenyl)-5-((5-(tetrahydro-2H-pyran-4-yl)isoxazol-3-yl)amino)-1H-pyrazole-4-carboxamide], the Kd at RIP1 and at RIP3 was more than 30 µM throughout. On to `Cc1cnc(Nc2[nH]nc(-c3ccc(NS(=O)(=O)C(F)F)c(OCc4ccc(F)c(F)c4)c3)c2C(N)=O)cn1` [Compound 291, 3-(3-((3,4-difluorobenzyl)oxy)-4-((difluoromethyl)sulfonamido)phenyl)-5-((5-methylpyrazin-2-yl)amino)-1H-pyrazole-4-carboxamide], for which the Kd on RIP1 and on RIP3 was more than 30 µM in each case.

Compound `C[C@H](Oc1cc(-c2n[nH]c(Nc3cnn(C4CCOCC4)c3)c2C(N)=O)ccc1NS(=O)(=O)C(F)F)c1ccc(F)cc1` [Compound 306, (S)-3-(4-((difluoromethyl)sulfonamido)-3-(1-(4-fluorophenyl)ethoxy)phenyl)-5-((1-(tetrahydro-2H-pyran-4-yl)-1H-pyrazol-4-yl)amino)-1H-pyrazole-4-carboxamide] returned a Kd at RIP1 of more than 30 µM.
